The text below walks through data of US20230242633A1 (KANAPH THERAPEUTICS, published 2023).

For assay [1], the target named is T1, human C3b (human, UniProt P01024 23-667; P01024 in part, limits assumed).
T1 construct: C3b is its cleaved fragment; also called human Cb3
Briefly: ELISA, human C3b immobilised on the plate, detection by anti-human IgG; the curve has no upper plateau in the range shown. From the text:
(§1) Specifically, a human C3b protein was immobilized on a plate, and C1.01, C1.02, C1.03, and C1.04, and hIgG1 as a control were bound thereto. Next, an anti-human immunoglobulin G antibody and an anti-horseradish peroxidase (HRP) antibody were sequentially bound thereto. Moreover, a mouse C3b protein was immobilized on a plate, and C1.01m to C1.03m containing mouse CRIg were bound to mouse C3b.
(ELISA stands for enzyme-linked immunosorbent assay.)

In assay [2] the target is T1, human C3b. Briefly: ELISA, human C3b immobilised on the plate, detection by anti-human IgG.
T1 sequence (P01024 23-667 limits assumed, chain 1 of 2): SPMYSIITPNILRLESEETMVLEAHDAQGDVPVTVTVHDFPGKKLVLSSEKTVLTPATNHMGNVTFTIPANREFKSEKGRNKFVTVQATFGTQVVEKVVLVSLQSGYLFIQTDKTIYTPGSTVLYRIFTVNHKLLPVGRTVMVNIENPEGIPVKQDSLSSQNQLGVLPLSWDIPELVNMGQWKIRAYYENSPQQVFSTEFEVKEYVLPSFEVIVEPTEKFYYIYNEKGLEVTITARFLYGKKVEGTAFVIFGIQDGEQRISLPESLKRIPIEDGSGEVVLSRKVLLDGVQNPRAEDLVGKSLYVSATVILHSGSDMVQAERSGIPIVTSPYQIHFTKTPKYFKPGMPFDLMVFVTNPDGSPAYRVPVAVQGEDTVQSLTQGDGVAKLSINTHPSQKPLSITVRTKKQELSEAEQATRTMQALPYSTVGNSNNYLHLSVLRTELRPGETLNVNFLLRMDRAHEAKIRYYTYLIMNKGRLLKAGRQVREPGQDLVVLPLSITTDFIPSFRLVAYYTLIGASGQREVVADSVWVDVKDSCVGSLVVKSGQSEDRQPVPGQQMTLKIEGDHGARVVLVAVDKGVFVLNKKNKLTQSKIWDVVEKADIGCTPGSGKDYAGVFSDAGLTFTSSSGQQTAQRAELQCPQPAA
T1 sequence (P01024 749-1663 limits assumed, chain 2 of 2): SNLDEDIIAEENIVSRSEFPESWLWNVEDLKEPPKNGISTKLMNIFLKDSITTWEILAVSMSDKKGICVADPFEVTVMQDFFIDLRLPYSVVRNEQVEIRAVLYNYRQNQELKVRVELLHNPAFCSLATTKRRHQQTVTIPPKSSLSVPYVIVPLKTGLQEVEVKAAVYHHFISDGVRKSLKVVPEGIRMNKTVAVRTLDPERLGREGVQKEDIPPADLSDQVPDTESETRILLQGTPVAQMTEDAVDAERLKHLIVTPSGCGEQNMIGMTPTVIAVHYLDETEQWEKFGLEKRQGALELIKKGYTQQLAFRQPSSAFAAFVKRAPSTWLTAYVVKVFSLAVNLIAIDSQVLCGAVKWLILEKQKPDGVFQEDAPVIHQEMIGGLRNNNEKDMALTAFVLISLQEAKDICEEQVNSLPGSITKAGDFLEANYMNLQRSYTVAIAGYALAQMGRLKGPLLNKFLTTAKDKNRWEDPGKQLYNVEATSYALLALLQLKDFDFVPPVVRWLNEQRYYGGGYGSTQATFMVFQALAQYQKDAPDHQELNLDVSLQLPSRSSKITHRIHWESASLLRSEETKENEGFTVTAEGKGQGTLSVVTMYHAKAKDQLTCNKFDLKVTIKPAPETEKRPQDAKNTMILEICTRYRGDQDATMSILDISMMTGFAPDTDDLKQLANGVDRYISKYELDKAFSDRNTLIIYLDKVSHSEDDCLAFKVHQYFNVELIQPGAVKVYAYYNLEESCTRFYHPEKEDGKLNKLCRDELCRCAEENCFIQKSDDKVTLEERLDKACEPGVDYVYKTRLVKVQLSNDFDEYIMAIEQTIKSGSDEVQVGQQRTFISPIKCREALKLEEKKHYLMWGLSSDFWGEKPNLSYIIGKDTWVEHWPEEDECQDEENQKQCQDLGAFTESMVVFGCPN
Description: as §1

The target of assay [3] is T1, human C3b. Nature of the assay: SPR (Biacore 8K), fusion captured on anti-human IgG (Fc) CM5 chip, C3b as analyte, 1:1 model. As to the method: (§2) A C3b stock solution was diluted to 50 nM using a 1×HBS-EP+ buffer. Human VEGF165 was diluted to 5 nM using a 1×HBS-EP+ buffer. The 50 nM and 5 nM solutions were then diluted to 0.78125 nM and 0.078125 nM. In the sample step, the diluted antigens were injected into the flow cells at a rate of 30 μL/min. Two 0 nM antigens (1×HBS-EP+ buffer) were used and removed from the reference signal. Binding for 180 seconds and separation for 400 seconds were performed. After the separation time, a stabilization step for 60 seconds was performed. In the regeneration step, 10 mM glycine (pH 1.5) was injected into the flow cells at a rate of 30 μL/min for 30 seconds, followed by a stabilization step for 60 seconds.
(§3) After subtracting the reference and 0 nM values from the sample values, binding kinetics were calculated using Biacore Insight Evaluation Software (Version 2.0.15.12933) and 1:1 binding model for curved fitting.
In general terms: Surface plasmon resonance follows binding to a sensor surface in real time, without labels.

For assay [4], the target named is VEGF (as added in the reporter cell assay and the wound healing assay). Briefly: cell-based or functional assay.
The target of assay [5] is T2, human VEGF165 (human, UniProt P15692-4 27-191).
T2 construct: also called human VEGF165 protein
T2 sequence (looked up): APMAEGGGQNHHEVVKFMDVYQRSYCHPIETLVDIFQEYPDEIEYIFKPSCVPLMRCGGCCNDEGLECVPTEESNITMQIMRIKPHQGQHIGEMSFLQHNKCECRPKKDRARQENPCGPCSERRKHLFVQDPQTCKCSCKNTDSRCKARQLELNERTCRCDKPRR
Nature of the assay: ELISA, human VEGF165 immobilised on the plate, detection by anti-human IgG. From the text: Specifically, a human VEGF165 protein was immobilized on a plate, and C1.02, C1.04, and C1.05, and aflibercept and hIgG1 as controls were bound thereto. Next, an anti-human immunoglobulin G antibody and an anti-horseradish peroxidase (HRP) antibody were sequentially bound thereto.

A further assay has as its target T3, human C2 (human, UniProt P06681 21-752).
T3 sequence (looked up): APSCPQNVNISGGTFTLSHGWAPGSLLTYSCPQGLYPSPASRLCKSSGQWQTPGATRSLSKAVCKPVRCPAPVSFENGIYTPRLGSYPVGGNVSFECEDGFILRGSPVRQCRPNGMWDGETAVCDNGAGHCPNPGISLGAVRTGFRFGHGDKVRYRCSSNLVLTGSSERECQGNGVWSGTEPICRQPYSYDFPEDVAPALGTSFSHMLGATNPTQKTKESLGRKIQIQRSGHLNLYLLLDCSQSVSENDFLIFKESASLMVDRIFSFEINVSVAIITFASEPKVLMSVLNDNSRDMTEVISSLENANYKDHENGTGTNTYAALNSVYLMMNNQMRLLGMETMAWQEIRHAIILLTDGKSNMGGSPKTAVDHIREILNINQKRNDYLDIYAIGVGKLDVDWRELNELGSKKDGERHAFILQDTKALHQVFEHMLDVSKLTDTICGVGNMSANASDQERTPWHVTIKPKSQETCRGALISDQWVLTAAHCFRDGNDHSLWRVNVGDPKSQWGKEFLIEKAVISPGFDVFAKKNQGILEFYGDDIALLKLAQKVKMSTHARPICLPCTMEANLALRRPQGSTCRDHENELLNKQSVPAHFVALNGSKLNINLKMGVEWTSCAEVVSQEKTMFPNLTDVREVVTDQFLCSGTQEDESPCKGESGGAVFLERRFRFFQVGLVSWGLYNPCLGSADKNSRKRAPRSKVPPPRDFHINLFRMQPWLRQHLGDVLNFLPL
Nature of the assay: ELISA, human C2 immobilised on the plate, C1.02 added, detection by anti-human IgG. From the text:
Specifically, the human Cb3, C2, or C4 protein was immobilized on a plate, and C1.02 was bound thereto. Next, an anti-human immunoglobulin G antibody and an anti-horseradish peroxidase (HRP) antibody were sequentially bound thereto.

The target in assay [6] is T2, human VEGF165. Nature of the assay: SPR (Biacore 8K), fusion captured on anti-human IgG (Fc) CM5 chip, human VEGF165 as analyte, 1:1 model. As to the method: as §2, §3
For assay [7], the target named is T1, human C3b. Nature of the assay: direct binding ELISA (rising curve), human C3b immobilised on the plate; the sheet labels the half-maximal value IC50. From the text: (§4) The binding ability of C3b of a human and a cynomolgus monkey to C1.02, the binding ability of C3b of a human and a cynomolgus monkey to C1.06, the binding ability of the VEGFs of a human, a cynomolgus monkey, a rat, and a rabbit to C1.02, and the binding ability of the VEGFs of a human, a cynomolgus monkey, a rat, and a rabbit to C1.01 were confirmed through ELISA. Specifically, the C3b or VEGF of a human, a cynomolgus monkey, a rat, or a rabbit was immobilized on a plate, and C1.01, C1.02, or C1.06 was bound thereto. Next, an anti-human immunoglobulin G antibody and an anti-horseradish peroxidase (HRP) antibody were sequentially bound thereto.

Assay [8] addresses T1, human C3b. The description is as above.
Description: as §4
This is another data set of the same source.

The target in another assay is rabbit C3b (rabbit, UniProt P12247 1-726). Briefly: direct binding ELISA (rising curve), rabbit C3b immobilised on the plate; the sheet labels the half-maximal value IC50.
A further assay deals with T4, cynomolgus monkey C3b (cynomolgus monkey).
T4 construct: also called C3b of a cynomolgus monkey
Nature of the assay: direct binding ELISA (rising curve), cynomolgus C3b immobilised on the plate; the sheet labels the half-maximal value IC50.
Description: as §4

Where two headings read alike, the source gives them in different places.

Broadly, the EC50 is the concentration that produces a half-maximal response. By Kd is commonly meant the concentration at which binding is half-saturated. As usually defined, the koff is a measure of how fast the partners let go of each other. The term kon denotes the rate constant with which the complex forms. By IC50 is commonly meant the concentration at which inhibition is half-maximal.

Chain of rabbit C3b (P12247 whole entry): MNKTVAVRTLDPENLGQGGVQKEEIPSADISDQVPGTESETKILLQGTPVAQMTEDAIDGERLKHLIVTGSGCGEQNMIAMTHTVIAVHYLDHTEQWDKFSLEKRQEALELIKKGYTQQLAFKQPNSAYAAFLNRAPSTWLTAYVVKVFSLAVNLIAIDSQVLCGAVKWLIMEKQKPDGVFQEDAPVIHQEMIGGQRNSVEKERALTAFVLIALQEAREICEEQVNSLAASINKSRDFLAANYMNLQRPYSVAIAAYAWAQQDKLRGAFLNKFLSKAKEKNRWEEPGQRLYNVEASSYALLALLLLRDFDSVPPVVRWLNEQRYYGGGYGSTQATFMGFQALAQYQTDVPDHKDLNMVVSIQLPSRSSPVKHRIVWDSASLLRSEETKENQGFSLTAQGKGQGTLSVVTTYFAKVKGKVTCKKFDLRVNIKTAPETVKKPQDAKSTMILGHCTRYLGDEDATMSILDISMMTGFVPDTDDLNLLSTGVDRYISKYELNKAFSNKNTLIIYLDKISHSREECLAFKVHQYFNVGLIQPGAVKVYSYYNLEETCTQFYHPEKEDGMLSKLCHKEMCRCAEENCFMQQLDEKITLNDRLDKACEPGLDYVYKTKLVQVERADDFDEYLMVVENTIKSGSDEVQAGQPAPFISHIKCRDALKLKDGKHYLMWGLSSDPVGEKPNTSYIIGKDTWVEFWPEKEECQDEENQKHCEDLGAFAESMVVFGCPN

B1: C1.03 (hu IgG1 Fc DANG-hu CRIg) (Fc fusion)
chain: [not shown - about 250 residues][not shown - about 120 residues]LSVSKPTVTTGSGYGFTVPQGMRISLQCQARGSPPISYIWYKQQTNNQEPIKVATLSTLLFKPAVIADSGSYFCTAKGQVGSEQHSDIVKFVVKDSSKLLKTKTEAPTTMTYPLKATSTVKQSWDWTTDMDGYLGETSAGPGKSLPG
The molecule B1 yielded an EC50 in the assay with human C3b [1] of 5.03 µg/mL.

B2: C1.01 (hu CRIg-hu IgG1 Fc DANG) (Fc fusion)
chain: [not shown - about 120 residues]LSVSKPTVTTGSGYGFTVPQGMRISLQCQARGSPPISYIWYKQQTNNQEPIKVATLSTLLFKPAVIADSGSYFCTAKGQVGSEQHSDIVKFVVKDSSKLLKTKTEAPTTMTYPLKATSTVKQSWDWTTDMDGYLGETSAGPGKSLPGGGGS[not shown - human IgG1 Fc with changes]
notes: also called CRIg-Fc
B2 registered a half-maximal effective concentration (EC50) with human C3b [2] of 0.191 µg/mL. In the assay with human C3b [3], this molecule had a Kd of 3.47 nM, a koff of 0.0121 s⁻¹ and a kon of 3.47e+06 M⁻¹ s⁻¹.

B3: Aflibercept (Fc fusion)
chain: SDTGRPFVEMYSEIPEIIHMTEGRELVIPCRVTSPNITVTLKKFPLDTLIPDGKRIIWDSRKGFIISNATYKEIGLLTCEATVNGHLYKTNYLTHRQTNTIIDVVLSPSHGIELSVGEKLVLNCTARTELNVGIDFNWEYPSSKHQHKKLVNRDLKTQSGSEMKKFLSTLTIDGVTRSDQGLYTCAASSGLMTKKNSTFVRVHEK[not shown - human IgG1 Fc]
notes: also called Eylea
For B3, the “IC50 (VEGF reporter cell luminescence)” value in assay [4] came to 1.83 nM. The EC50 with human VEGF165 [5] was found to be 0.026 µg/mL.

B4: C1.04 (VEGF binder-hu IgG1 Fc DANG-hu CRIg) (Fc fusion)
chain: SDTGRPFVEMYSEIPEIIHMTEGRELVIPCRVTSPNITVTLKKFPLDTLIPDGKRIIWDSRKGFIISNATYKEIGLLTCEATVNGHLYKTNYLTHRQTNTIIDVVLSPSHGIELSVGEKLVLNCTARTELNVGIDFNWEYPSSKHQHKKLVNRDLKTQSGSEMKKFLSTLTIDGVTRSDQGLYTCAASSGLMTKKNSTFVRVHEKGGGGSDKTHTCPPCPAPELLGGPSVFLFPPKPKDTLMISRTPEVTCVVVAVSHEDPEVKFNWYVDGVEVHNAKTKPREEQYGSTYRVVSVLTVLHQDWLNGKEYKCKVSNKALPAPIEKTISKAKGQPREPQVYTLPPSRDELTKNQVSLTCLVKGFYPSDIAVEWESNGQPENNYKTTPPVLDSDGSFFLYSKLTVDKSRWQQGNVFSCSVMHEALHNHYTQKSLSLSPGGGGGSGGGGS[not shown - about 120 residues]LSVSKPTVTTGSGYGFTVPQGMRISLQCQARGSPPISYIWYKQQTNNQEPIKVATLSTLLFKPAVIADSGSYFCTAKGQVGSEQHSDIVKFVVKDSSKLLKTKTEAPTTMTYPLKATSTVKQSWDWTTDMDGYLGETSAGPGKSLPG
Turning to B4, the EC50 in the assay with human VEGF165 [5] was determined as 0.039 µg/mL; in the assay with human C3b [1], 7.74 µg/mL.

B5: C1.05 (VEGF binder-hu IgG1 Fc DANG) (Fc fusion)
chain: SDTGRPFVEMYSEIPEIIHMTEGRELVIPCRVTSPNITVTLKKFPLDTLIPDGKRIIWDSRKGFIISNATYKEIGLLTCEATVNGHLYKTNYLTHRQTNTIIDVVLSPSHGIELSVGEKLVLNCTARTELNVGIDFNWEYPSSKHQHKKLVNRDLKTQSGSEMKKFLSTLTIDGVTRSDQGLYTCAASSGLMTKKNSTFVRVHEKGGGGS[not shown - human IgG1 Fc with changes]
For B5, the “IC50 (VEGF reporter cell luminescence)” value in assay [4] amounted to 1.68 nM. This molecule displayed a 50% effective concentration (EC50) with human VEGF165 [5] of 0.02 µg/mL.

B6: C1.02 (hu CRIg-hu IgG1 Fc DANG-VEGF binder) (Fc fusion)
chain: [not shown - about 120 residues]LSVSKPTVTTGSGYGFTVPQGMRISLQCQARGSPPISYIWYKQQTNNQEPIKVATLSTLLFKPAVIADSGSYFCTAKGQVGSEQHSDIVKFVVKDSSKLLKTKTEAPTTMTYPLKATSTVKQSWDWTTDMDGYLGETSAGPGKSLPGGGGSDKTHTCPPCPAPELLGGPSVFLFPPKPKDTLMISRTPEVTCVVVAVSHEDPEVKFNWYVDGVEVHNAKTKPREEQYGSTYRVVSVLTVLHQDWLNGKEYKCKVSNKALPAPIEKTISKAKGQPREPQVYTLPPSRDELTKNQVSLTCLVKGFYPSDIAVEWESNGQPENNYKTTPPVLDSDGSFFLYSKLTVDKSRWQQGNVFSCSVMHEALHNHYTQKSLSLSPGGGGGSGGGGSSDTGRPFVEMYSEIPEIIHMTEGRELVIPCRVTSPNITVTLKKFPLDTLIPDGKRIIWDSRKGFIISNATYKEIGLLTCEATVNGHLYKTNYLTHRQTNTIIDVVLSPSHGIELSVGEKLVLNCTARTELNVGIDFNWEYPSSKHQHKKLVNRDLKTQSGSEMKKFLSTLTIDGVTRSDQGLYTCAASSGLMTKKNSTFVRVHEK
With B6, the “IC50 (VEGF reporter cell luminescence)” value in assay [4] was determined as 3.07 nM. For the same molecule, the 50% effective concentration (EC50) with human C3b [2] was found to be 0.399 µg/mL; with human VEGF165 [5], 0.033 µg/mL. Also, in the assay with human C2, the binding result is reported as “no binding (tested: 50 ng/mL)”. The Kd in the assay with human C3b [3] is 4.34 nM; in the assay with human VEGF165 [6], 0.0628 nM. Further, the koff with human C3b [3] was found to be 0.0159 s⁻¹; with human VEGF165 [6], 0.000247 s⁻¹. Also, the kon with human C3b [3] worked out at 3.66e+06 M⁻¹ s⁻¹; in the assay with human VEGF165 [6] it was 3.94e+06 M⁻¹ s⁻¹. Also, the IC50 turned out to be 0.102 nM in the assay with human C3b [7], 1.42 nM in the assay with human C3b [8], 39.1 nM with rabbit C3b and 0.129 nM with cynomolgus monkey C3b.
